# Data from the supplement of paper PMC9446081.
# Among all 39,000 compounds or so, about 220 (0.56%) showed activity. The list shows a part of the results.
# Test system: Escherichia coli K-12 BW25113
# Test: relative growth (OD600 normalised to plate interquartile mean) (fraction); higher = less growth inhibition, active = 0.2 or less
# Conditions: 50 µM; LB; incubation time: overnight (16-24 h)
# 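Further: static incubation at 37 °C against the wild-type strain, values averaged over two biological replicates.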
row,Compound,relative growth
1,Cc1noc(C)c1NC(=O)Nc1ccc2c(c1)CC(=O)N([C@@H](C)CO)C[C@H](C)[C@H](CN(C)S(=O)(=O)c1ccccc1)O2,inactive: 0.971
2,COc1ccc(S(=O)(=O)N(C)C[C@H]2Oc3ccc(NS(=O)(=O)c4cccs4)cc3C(=O)N([C@H](C)CO)C[C@@H]2C)cc1,inactive: 1.02
3,C[C@@H]1CN([C@H](C)CO)C(=O)c2cccc(NC(=O)Nc3cccc4ccccc34)c2O[C@@H]1CN(C)Cc1ccc(C(=O)Nc2ccccc2N)cc1,inactive: 0.991
4,C[C@@H]1CN([C@@H](C)CO)S(=O)(=O)c2ccc(-c3cccnc3)cc2O[C@@H]1CN(C)CC1CCOCC1,inactive: 0.998
5,C[C@@H]1CCCCO[C@H](CN(C)C(=O)CCCN(C)C)[C@H](C)CN([C@@H](C)CO)C(=O)c2cc(NC(=O)Nc3ccc(F)cc3)ccc2O1,inactive: 0.969
6,C[C@H]1CCCCO[C@H](CN(C)C(=O)Nc2ccc(C(F)(F)F)cc2)[C@@H](C)CN([C@@H](C)CO)C(=O)c2cc(NS(=O)(=O)c3ccc(Cl)cc3)ccc2O1,inactive: 0.998
7,Cc1ccccc1-c1cc(N2CCN(C)CC2)ncc1N(C)C(=O)C(C)(C)c1cc(C(F)(F)F)cc(C(F)(F)F)c1,inactive: 0.93
8,C[C@@H]1CN([C@H](C)CO)C(=O)Cc2cc(NC(=O)Nc3ccc(C(F)(F)F)cc3)ccc2O[C@@H]1CN(C)Cc1ccccc1,inactive: 1.02
9,CC(C)C(=O)Nc1nnc2n1CCS2,inactive: 1.02
10,COc1ccc(CN(C)C[C@H]2Oc3c(NC(=O)Nc4cccc5ccccc45)cccc3C(=O)N([C@H](C)CO)C[C@H]2C)cc1,inactive: 0.989
11,NNC(=O)CCCCC(=O)NO,inactive: 0.971
12,C[C@@H]1CN([C@@H](C)CO)C(=O)c2cc(NC(=O)Nc3ccc(F)cc3)ccc2O[C@@H]1CN(C)Cc1ccc(-c2ccccc2)cc1,inactive: 1.01
13,O=S(=O)(NCC[C@@H]1CC[C@H](NS(=O)(=O)c2cccc(Cl)c2)[C@H](CO)O1)c1cccc(F)c1,inactive: 0.998
14,O=C(N[C@H]1CC=CC[C@H](CC(=O)N(CCO)Cc2ccccc2)C(=O)N[C@H](Cc2ccccc2)COC1=O)OCC1c2ccccc2-c2ccccc21,inactive: 1.02
15,CC(C)NC(=O)N(C)C[C@@H]1Oc2ccc(NS(=O)(=O)c3cccs3)cc2C(=O)N([C@H](C)CO)C[C@H]1C,inactive: 0.969
16,C[C@@H]1CN([C@@H](C)CO)C(=O)c2cc(NS(=O)(=O)c3cccs3)ccc2O[C@@H](C)CCCCO[C@H]1CN(C)Cc1ccc(C(=O)O)cc1,inactive: 1.03
17,CCN(CC)c1ccc(N2CC=C[C@@]34O[C@@H]5/C=C\CCCOC(=O)[C@@H]5[C@H]3C(=O)N([C@@H](C)CO)[C@@H]4C2=O)cc1,inactive: 0.997
18,COc1ccc(S(=O)(=O)Nc2cccc3c2O[C@@H](CN(C)S(=O)(=O)c2ccc(OC)cc2)[C@@H](C)CN([C@H](C)CO)C3=O)cc1,inactive: 1.01
19,O=C1COC2(CN1)COC2,inactive: 1

row,Compound,relative growth
1,C[C@@H]1CN([C@@H](C)CO)C(=O)Cc2cc(NC(=O)CCN3CCOCC3)ccc2O[C@H]1CN(C)Cc1ccncc1,inactive: 0.993
2,COc1ccc2c3c([nH]c2c1)[C@@H](CO)N(C[C@]13CCN(CC1)C(=O)NC(C)C)C(=O)CN1CCOCC1,inactive: 1
3,Cc1ccc(OC(=O)N(C)C[C@@H]2OCc3ccccc3-c3ccccc3C(=O)N([C@@H](C)CO)C[C@H]2C)cc1,inactive: 1
4,CC(C)NC(=O)Nc1cccc2c1O[C@@H](CN(C)S(=O)(=O)c1ccc(F)cc1)[C@@H](C)CN([C@H](C)CO)C2=O,inactive: 0.989
5,Cc1noc(C)c1NC(=O)Nc1cccc2c1O[C@H](CN(C)S(C)(=O)=O)[C@@H](C)CN([C@@H](C)CO)C2=O,inactive: 1.02
6,CN1CCN(C(=O)C[C@@H]2CC[C@@H]3[C@H](COC[C@@H](O)CN3C(=O)C3CCCC3)O2)CC1,inactive: 1
7,Cc1ccccc1S(=O)(=O)N1C[C@@H](O)COC[C@@H]2O[C@@H](CC(=O)NCCc3ccccc3)CC[C@H]21,inactive: 0.999
8,C[C@@H]1CCCCO[C@@H](CN(C)S(=O)(=O)c2ccc(Cl)cc2)[C@@H](C)CN([C@@H](C)CO)C(=O)c2cc(NC(=O)Nc3ccc4c(c3)OCO4)ccc2O1,inactive: 1.01
9,CNC(=O)C[C@H]1CC[C@H]2[C@@H](COc3ccc(NC(=O)CN(C)C)cc3C(=O)N2C)O1,inactive: 1
10,C[C@@H]1CN([C@H](C)CO)C(=O)Cc2cc(NS(=O)(=O)c3cn(C)cn3)ccc2O[C@@H]1CN(C)C,inactive: 1.02
11,CC1(C)OC(=O)C2(C(=O)O1)[C@@H](c1ccc(Br)cc1)CC(=O)C[C@H]2c1ccc(Br)cc1,inactive: 1.03
12,C[C@H]1CN([C@@H](C)CO)C(=O)Cc2cc(NS(=O)(=O)c3ccccc3)ccc2O[C@@H]1CN(C)Cc1ccc2c(c1)OCO2,inactive: 1.01
13,CC(C)NC(=O)Nc1cccc2c1O[C@H](CN(C)S(=O)(=O)c1ccc(F)cc1)[C@H](C)CN([C@@H](C)CO)C2=O,inactive: 0.989
14,CC(C)NC(=O)Nc1ccc2c(c1)C(=O)N([C@H](C)CO)C[C@@H](C)[C@H](CN(C)CC1CCCCC1)OCCCC[C@@H](C)O2,inactive: 0.997
15,Cc1noc(C)c1S(=O)(=O)N(C)C[C@H]1Oc2ccc(NC(=O)NC(C)C)cc2CC(=O)N([C@H](C)CO)C[C@H]1C,inactive: 1.01
16,Cc1noc(C)c1S(=O)(=O)Nc1ccc2c(c1)C(=O)N([C@H](C)CO)C[C@H](C)[C@@H](CN(C)C(=O)Nc1ccc(F)cc1)OCCCC[C@@H](C)O2,inactive: 0.988
17,C[C@H]1CN([C@@H](C)CO)C(=O)c2cccc(NC(=O)Nc3ccc(C(F)(F)F)cc3)c2O[C@H]1CN(C)C(=O)Nc1ccc(C(F)(F)F)cc1,inactive: 1.02
18,C[C@H]1CN([C@@H](C)CO)C(=O)c2cc(NS(C)(=O)=O)ccc2O[C@@H]1CN(C)S(=O)(=O)c1cn(C)cn1,inactive: 1
19,C[C@H](CO)N1C[C@H](C)[C@H](CN(C)Cc2ccc(C(=O)Nc3ccccc3N)cc2)Oc2c(NC(=O)c3ccc(-c4nccs4)cc3)cccc2C1=O,inactive: 1.02
